# Out of some 310,000 compounds screened, about 2,200 (0.71%) showed an effect of 50% or more. The effect is printed as a negative number. This is one part of the list.
# Molecular target: human ether-à-go-go-related gene (hERG) potassium channel (human, UniProt Q12809)
# Assay: primary screen, population patch clamp on CHO cells stably expressing hERG
# Sequence of human ether-à-go-go-related gene (hERG) potassium channel (Q12809 whole entry, looked up): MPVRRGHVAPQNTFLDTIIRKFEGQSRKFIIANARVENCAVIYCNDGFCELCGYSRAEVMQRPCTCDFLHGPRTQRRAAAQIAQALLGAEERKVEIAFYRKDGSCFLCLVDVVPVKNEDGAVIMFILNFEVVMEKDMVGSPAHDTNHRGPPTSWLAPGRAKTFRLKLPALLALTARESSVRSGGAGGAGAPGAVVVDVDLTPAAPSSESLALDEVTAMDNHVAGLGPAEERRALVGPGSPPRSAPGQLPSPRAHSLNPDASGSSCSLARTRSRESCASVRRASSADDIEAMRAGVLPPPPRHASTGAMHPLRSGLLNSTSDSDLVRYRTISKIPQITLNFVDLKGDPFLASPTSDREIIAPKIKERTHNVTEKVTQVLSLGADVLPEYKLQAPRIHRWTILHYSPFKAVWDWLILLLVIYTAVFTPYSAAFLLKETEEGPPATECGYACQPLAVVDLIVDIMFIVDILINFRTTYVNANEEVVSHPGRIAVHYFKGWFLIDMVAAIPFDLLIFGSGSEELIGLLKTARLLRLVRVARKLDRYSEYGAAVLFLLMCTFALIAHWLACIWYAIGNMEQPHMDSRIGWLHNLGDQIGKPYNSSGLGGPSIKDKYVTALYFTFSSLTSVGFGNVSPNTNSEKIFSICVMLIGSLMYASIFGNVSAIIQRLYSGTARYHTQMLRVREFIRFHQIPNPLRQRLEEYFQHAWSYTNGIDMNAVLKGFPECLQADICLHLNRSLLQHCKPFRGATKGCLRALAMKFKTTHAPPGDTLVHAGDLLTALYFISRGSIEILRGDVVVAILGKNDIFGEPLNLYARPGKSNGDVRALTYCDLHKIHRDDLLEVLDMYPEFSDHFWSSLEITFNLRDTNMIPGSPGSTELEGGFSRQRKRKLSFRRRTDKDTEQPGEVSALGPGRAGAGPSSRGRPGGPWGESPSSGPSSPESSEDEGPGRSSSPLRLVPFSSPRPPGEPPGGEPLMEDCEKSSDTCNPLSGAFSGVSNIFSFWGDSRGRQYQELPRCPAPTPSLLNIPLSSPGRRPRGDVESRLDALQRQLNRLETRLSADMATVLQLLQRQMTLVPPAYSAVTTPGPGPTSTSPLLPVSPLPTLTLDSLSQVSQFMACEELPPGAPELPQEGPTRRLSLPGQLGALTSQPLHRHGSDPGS
row,SMILES,"hERG current change (%, negative = inhibition) at 1uM [%]"
1,CC1CC(=O)NN=C1c1ccc(N)c([N+](=O)[O-])c1 (stereo not drawn),10.4
2,Cc1ccc2cc(C=C(C#N)C#N)c(Cl)nc2c1,5.12
3,O=C(CCn1cnc2ccccc2c1=O)Nc1nc(-c2ccc(Br)cc2)cs1,7.93
4,O=C(COc1ncnc2c(Cl)cc(Cl)cc12)NCCC1=CCCCC1,10.1
5,NC(=O)C[n+]1cccc2ccccc21.[I-],2.63
6,CCc1ccc(OC(C)C(=O)Nc2ccccc2C(=O)N2CCOCC2)cc1 (stereo not drawn),8.83
7,O=C(Nc1cccnc1N1CCOCC1)c1cc2ccccc2oc1=O,7.52
8,CCOC(=O)C1CCN(S(=O)(=O)c2c(C)[nH]c(C)c2C(=O)N2CCCCC2)CC1,17.9
9,Cc1c(OC(C)C(=O)N[C@@H](Cc2ccccc2)C(=O)O)ccc2c3c(c(=O)oc12)CCCC3 (stereo partly drawn),13
10,Cc1ccc(C2=C/C(=C\c3cccnc3)C(=O)O2)cc1,8.6
11,CC(C(=O)Nc1nc(-c2ccc(F)cc2)cs1)N1C(=O)C2CC=CCC2C1=O (stereo not drawn),6.7
12,Cc1sc2ncnc(N3CCC(C(=O)Nc4nc(-c5cccs5)cs4)CC3)c2c1C,8.17
13,O=C(c1ccccc1Cl)N1CCN(S(=O)(=O)c2cccs2)CC1,-3.7
14,O=C(NN=C1CCCC1)c1n[nH]c2c1CCC2,11.8
15,Cc1nc([N+](=O)[O-])cn1CC(=O)Nc1ccc2c(c1)OCO2,9.75
16,CCNC(=S)Nc1cccc(S(=O)(=O)Nc2ccccc2OC)c1,10.9
17,Cc1ccccc1OCCCN1C(=O)C(=O)c2cccc(C)c21,5.87
18,CCOc1ccc(NC(=O)c2c[nH]n3c(=O)cc(C4CCN(C(=O)OC(C)(C)C)CC4)nc23)cc1,11.7
19,COc1ccc(NC(=O)CSc2nnc(Cn3cnc([N+](=O)[O-])n3)n2C)cc1,12.5
20,CC(Cc1nnc(N)s1)c1ccccc1 (stereo not drawn),7.94
21,COCC(C)n1c(SC(C)C(=O)NC2CCCCC2C)nc2ccccc2c1=O (stereo not drawn),12.1
22,Cc1ccc(Cn2nc(C)c3cc(C(=O)OCC(N)=O)sc32)cc1,8.46
23,O=C(NC1CCCCC1)c1ccccc1C(F)(F)F,7.56

row,SMILES,"hERG current change (%, negative = inhibition) at 1uM [%]"
1,CC(=O)c1ccc(NC(=O)CCc2nnc3ccc(N4CCCC4)nn23)cc1,10.8
2,CC(C)CC(=O)Nc1nnc(SCC(=O)Nc2ccc3c(c2)OCO3)s1,7.25
3,CCOC(=O)C1CCCN(S(=O)(=O)c2cccs2)C1 (stereo not drawn),12.7
4,COc1cc(NC(=S)Nc2ccc(Br)cc2Cl)c(OC)cc1Cl,4.84
5,c1cn(CCCNc2ncnc3sc4c(c23)CCC4)cn1,0.846
6,CCn1c(=S)sc2c(=O)n(CC(=O)NCCCc3ccccc3)c(C)nc21,12.4
7,Cc1ccc(S(=O)(=O)N2CCN(C(=O)COC(=O)c3cccc(Cl)c3)CC2)c(C)c1,17.3
8,CCC1CCCCN1C(=O)COc1ccc2c(c1)OCO2 (stereo not drawn),13.6
9,COCCCNC(=S)Nc1ccc(CC(=O)O)cc1,11.7
10,O=C(CCC(=O)Nc1ccccc1Cl)N/N=C1\CCCc2ccccc21,20.4
11,Cc1ccc(-c2cc(C(=O)Nc3ccc(S(=O)(=O)Nc4nc(C)cc(C)n4)cc3)c3ccccc3n2)cc1,2.93
12,CCN1C(C)=C(C)S/C1=C1\SC(=S)N(C2CCCCC2)C1=O,9.55
13,COc1cccc(CNCc2cccc(Br)c2)c1OC.O=C(O)C(=O)O,8.57
14,CC(C)CC(=O)Nc1ccnn1C1CCN(C(=O)c2ccc(Cl)cc2F)CC1,-6.67
15,CC(C)c1ccc(CN2CCN(S(=O)(=O)c3ccc(Cl)s3)CC2)cc1,7.97
16,Cc1c(NC(=S)NCc2ccc(F)cc2)cccc1[N+](=O)[O-],12.8
17,COc1ccccc1OCC(=O)Nc1ccc2c(c1)OCCO2,10.8
18,COc1ccc(Br)cc1CN(C)C(=O)CNC(=O)c1ccc2ccccc2c1,9.28
19,O=C(NC(=S)N1CCCC1)c1ccccc1F,0.177
20,CCNC(=O)NC(C(=O)OC)C12CC3CC(CC(C3)C1)C2 (stereo not drawn),8.32
21,CC(C)(C)C(=O)NC(NC(=S)Nc1ccc(S(N)(=O)=O)cc1)C(Cl)(Cl)Cl (stereo not drawn),7.63
22,CC(C)(C)C1COc2ccccc2N1C(=O)c1ccccc1Cl (stereo not drawn),13.1
23,O=C(NCc1cccs1)C1CC(c2ccc(Cl)cc2)=NO1 (stereo not drawn),12.8

row,SMILES,"hERG current change (%, negative = inhibition) at 1uM [%]"
1,O=C(COC(=O)CN1C(=O)NC2(CCCC2)C1=O)Nc1c(Cl)cccc1C(F)(F)F,9.1
2,CCOC(=O)NC(Nc1ccc(C)cn1)(C(F)(F)F)C(F)(F)F,11
3,N#Cc1ccccc1NC(=S)Nc1ccc(F)cc1,13.3
4,CCCCNC(=O)CO/N=C(\C)c1cc2ccccc2o1,10.8
5,C/C(CC(=O)Nc1ccc(Cl)cc1Cl)=N\NC(=O)C(=O)N1CCCC1,8.7
6,O=C1CCCCCN1CP(=O)(O)CN1CCCCCC1=O,12.9
7,Cc1cc(N2C(=O)Cc3ccccc3C2=O)ccc1C(C)C,6.38
8,O=C(Oc1ccccc1-c1nnco1)c1ccc(Cl)cc1,6.05
9,COc1ccc(N2CCN(C3CCCN(S(=O)(=O)c4ccccc4)C3)CC2)cc1 (stereo not drawn),7.26
10,Cc1c(CC(=O)O)c(=O)oc2c(C)c(OCc3ccccc3Br)ccc12,8.27
11,COc1ccc(C(=O)NC2CCN(C(=O)NC3CCCCC3)CC2)cc1,10.5
12,CCOc1ccc(Br)cc1S(=O)(=O)Nc1ccc(C(=O)OC(C)C(=O)N(C)c2ccccc2)cc1 (stereo not drawn),9.85
13,O=c1[nH]c2cccnc2c2ccsc12,11.5
14,Nc1sc2c([n+]1CCCS(=O)(=O)[O-])CCCC2,12.5
15,CC1CCCCN1C(=O)Cn1nnc(-c2cccnc2)n1 (stereo not drawn),14.5
16,CCOc1cc2c(cc1OCC)C(c1ccccc1)N(c1ccc(C(=O)O)cc1)C(=O)C2 (stereo not drawn),7.71
17,O=C(Nc1cccc(-c2cccc(F)c2)c1)C1CCN(C2CCOCC2)CC1,-67.8
18,O=[N+]([O-])c1cccnc1N1CCN(c2ccc(F)cc2)CC1,-0.886
19,CC(C)C(=O)Nc1ccc(S(=O)(=O)N2CCC(c3nc4ccccc4[nH]3)CC2)cc1,12
20,CCCCCCC(=O)Nc1nc(C)c(-c2csc(Nc3cc(OC)ccc3OC)n2)s1,9.91
21,Cl.c1cc(CNC2C3CC4CC(C3)CC2C4)ccn1 (stereo not drawn),5.52
22,COc1ccccc1CNC(=O)c1cccc(N(C)C)c1,5.63
23,Clc1ccc(OCc2nc(-c3ccccn3)n[nH]2)cc1,-8.04

row,SMILES,"hERG current change (%, negative = inhibition) at 1uM [%]"
1,CCC(=NCCN1CCCCC1)c1c(O)n(C)c(=O)n(C)c1=O,-3.36
2,COc1cc(C(=O)NNC(=S)NC(=O)c2ccc(F)cc2)cc(OC)c1OC,10.2
3,Cc1cc(C(F)(F)F)nn1CC(=O)Nc1ccc(Br)c2cccnc12,-7.38
4,Nc1c([N+](=O)[O-])c(=O)oc2ccccc12,13.2
5,COc1cc(C(=O)Nc2ccc(Oc3ncnc4sc(-c5ccccc5)cc34)cc2)cc(OC)c1OC,12.9
6,S=C(NCCCN1CCOCC1)N(Cc1ccccc1)Cc1ccccc1,-0.376
7,CCN(CC)CCCNC(=O)c1[nH]c2ccccc2c1Sc1ccc(Cl)cc1,-48.1
8,Cc1ccc(S(=O)(=O)N2CCN(C(=O)COC(=O)CCOc3cc(C)ccc3C)CC2)cc1,0.786
9,O=C(O)Cc1ccc(NS(=O)(=O)c2ccccc2Br)cc1,16.7
10,COc1cc(/C=N/NC(N)=S)ccc1OCc1ccc(C)cc1,9.09
11,Cc1cccc(C(=O)O[C@@H]2[C@H](Cc3ccccc3)NS(=O)(=O)[C@H]3C[C@@H]4C=C[C@]23O4)c1,14.1
12,CCOC(=O)C1=C(C)N(CCCC(=O)O)C(=O)NC1c1ccccc1OS(=O)(=O)c1ccccc1[N+](=O)[O-] (stereo not drawn),11.5
13,CCOC(=O)C(CCCCCOc1ccccc1[N+](=O)[O-])C(=O)OCC,9.84
14,COc1cc(Br)c(-c2sc(Nc3ccccc3)n[n+]2-c2ccc(F)cc2)cc1OC.[Cl-],7.75
15,Cc1ccc(C)c(-c2csc(NC(=O)C3=COCCO3)n2)c1,5.02
16,CCOC(=O)c1c2n(c3ccc(O)cc13)CCC2,16.1
17,Cc1cccc(NC(=S)NC2CCCC2)c1C,2.03
18,N=C(N)Cc1ccccc1Sc1ccccc1.O=C(O)/C=C\C(=O)O,5.87
19,CC(C)n1cc(/C=N/Nc2ccc(Cl)c(C(=O)O)c2)c2ccccc21,18.9
20,O=C(CSc1nncc2ccccc12)Nc1ccccc1,8.55
21,CC(C)CN(C(=O)COC(=O)c1ccc(Br)cc1)c1c(N)n(Cc2ccccc2)c(=O)[nH]c1=O,-0.63
